Laboratory results from PubChem BioAssay AID463173 (ICCB-Longwood Screening Facility, Harvard Medical School, 2010).
The whole screen tested about 52,000 compounds, of which about 1,700 (3.3%) were called active. Cut-off read from the data, not from the text of the source: active = survival mostly below about 52% (no sharp cut-off); inactive = mostly above about 56%. This is one part of the list.

What follows are compounds tested on Wild type (assay: growth inhibition of S. aureus wild type versus tarO mutant, primary screen, teichoic acid synthesis inhibitors, RN4220, OD600 (AID 463173)). Details: S. aureus RN4220 wild type/DeltatarO growth, OD600, 18 h, hits give low values, screened at 18.75 µg/mL (by protocol).

| Structure (SMILES) | survival |
| --- | --- |
| Cc1cccc(Cn2c(CN3CCC(C(=O)NCc4ccccc4Cl)CC3)cc3ccccc32)c1 | inactive: 78% |
| Cc1ccc(C(=O)Nc2cc(-c3nc4cc(Cl)ccc4o3)ccc2C)c(C)c1 | inactive: 79% |
| O=C(O)CCSc1nc2ccccc2o1 | inactive: 99% |
| COc1ccc(Cn2c(CNS(=O)(=O)c3ccc(Cl)s3)nc3cccnc32)cc1 | inactive: 78% |
| O=S(=O)(NCc1csc(-c2ccccc2)n1)c1ccccc1 | inactive: 76% |
| CCOCCCNC(=O)C1CCN(c2nc3ccc(Cl)cc3[nH]2)CC1 | inactive: 88% |
| COc1ccc(CN2CCc3nc(N4CCN(c5ccc(F)cc5)CC4)ncc3C2)c(OC)c1OC | inactive: 131% |
| O=C(c1cnn(-c2ccc(F)cc2)c1-n1cccc1)N1CCN(c2cccc(Cl)c2)CC1 | inactive: 65% |
| Cc1ccc(NC(=O)c2cnc3cc(C)ccn3c2=O)c(C)c1 | inactive: 88% |
| Cc1ccc2[nH]c(C)c(CN3CC(C)OC(C)C3)c(=O)c2c1 (centres undefined) | inactive: 109% |
| COc1ccc(-c2cc(C(=O)Nc3cc(C)nn3-c3ccccc3)no2)cc1OC | inactive: 78% |
| CCCCSc1nc(-c2cccc(OC)c2)nc2c1Cc1c(CO)cnc(C)c1O2 | inactive: 86% |
| O=C(CSc1nnc(-c2ccncc2)o1)Oc1ccccc1 | inactive: 103% |
| CC1CCCCN1C(=O)CN1CCSc2ccccc21 (centres undefined) | inactive: 76% |
| CCC(=O)Nc1ccc(CC)cc1-c1nc2ccccc2n(CC(=O)c2ccc(OC)cc2)c1=O | inactive: 74% |
| Cc1cc(C)nc(Sc2ccccc2)n1 | inactive: 107% |
| Cc1c(Cl)cccc1NC(=O)c1oc2ccc(S(=O)(=O)N3CCC4(CC3)OCCO4)cc2c1C | inactive: 153% |
| O=S(=O)(NCc1ccc(F)cc1)c1ccc2[nH]c3c(c2c1)CCCC3 | active: -3% |
| Cc1ccc(-c2cc(NC(=O)c3cccc(C)c3)on2)cc1 | inactive: 97% |
| CCc1nonc1NC(=O)c1oc2cc(C)c(C)cc2c1C | inactive: 114% |
| Cc1cc(/C=C(/C#N)C(=O)NCc2ccccc2)c(C)n1-c1cccnc1 | inactive: 118% |
| COc1ccc(NC(=O)C2Cc3ccccc3CN2S(=O)(=O)c2ccccc2)cc1OC (centres undefined) | inactive: 69% |
| COc1ccc(C(=O)Oc2ccc(C(c3c(C)[nH][nH]c3=O)c3c(C)[nH][nH]c3=O)cc2)cc1 | inactive: 68% |

| Structure (SMILES) | survival |
| --- | --- |
| CCc1cccc(-n2c(=O)c3cccnc3n2CC(=O)Nc2ccc(OC)c(Cl)c2)c1 | inactive: 126% |
| CC(C)N1CC2=C(OC(N)=C(C#N)C2c2cccnc2)/C(=C/c2cccnc2)C1 (centres undefined) | inactive: 102% |
| CCc1ccccc1NC(=O)CCCn1c(=O)c2cccn2c2ccccc21 | inactive: 101% |
| COc1cccc(-n2c(SCC(N)=O)nc3c(oc4ccccc43)c2=O)c1 | inactive: 58% |
| O=C1CN(C(=O)Cc2ccccc2)C(c2ccc(F)cc2)c2cc(Br)ccc2N1 (centres undefined) | inactive: 66% |
| Cc1cc(S(=O)(=O)Nc2ccc3oc4c(c3c2)CCCC4)ccc1Cl | inactive: 46% |
| CCCc1nn2c(=O)cc(COC(=O)c3ccc(NC(=O)COc4ccccc4F)cc3)nc2s1 | inactive: 121% |
| O=C(CCCOc1ccccc1)Nc1ncn[nH]1 | inactive: 110% |
| CCOc1ccc(CCNCc2c(C(=O)O)c(C)n(Cc3ccccc3F)c2C)cc1 | inactive: 104% |
| Cc1ccc(S(=O)(=O)N2CCc3cc(C(=O)Nc4ccc(Cl)cc4C)ccc32)cc1 | inactive: 84% |
| COc1ccc(NS(=O)(=O)c2ccc3c(c2)[C@H]2C=CC[C@H]2[C@@H](c2ccc(C(=O)O)cc2)N3)cc1 | inactive: 68% |
| Cc1noc(-c2ccc(-c3noc(-c4ccc([N+](=O)[O-])c(C)c4)n3)cc2)n1 | inactive: 53% |
| CC1Cc2cc(S(=O)(=O)NCc3ccc(Cl)cc3)ccc2N1C(=O)C1CCC1 (centres undefined) | inactive: 74% |
| CC(C)c1ccc(N2C(=O)N(Cc3cccc([N+](=O)[O-])c3)c3ccccc3S2(=O)=O)cc1 | inactive: 71% |
| CSc1nc(-c2ccc(Cl)cc2)nn1S(=O)(=O)c1ccc(NC(C)=O)cc1 | inactive: 102% |
| CCOc1ccc(NC(=O)[C@@H](c2ccccc2)N2Cc3ccccc3C2=O)cc1 | inactive: 79% |
| Cc1cccn2c(=O)c(C(=O)N3CCN(c4ccc(Cl)cc4)CC3)cnc12 | inactive: 87% |
| CCN(CC)c1ccc(NC(=O)CCc2c(C)nc3ncnn3c2C)c(C)c1 | inactive: 119% |
| COc1cc(C2C(C(=O)Nc3ccccc3C)=C(C)Nc3nc(SCc4cc(C)ccc4C)nn32)ccc1O (centres undefined) | inactive: 119% |
| O=S(=O)(NCCc1csc2nc(-c3ccccc3)nn12)c1ccc(Oc2ccccc2)cc1 | inactive: 57% |
| O=C(CSc1nnc(-c2ccccc2)o1)NC1CCCC1 | inactive: 103% |
| Cc1ccc(-n2nnnc2CNC(=O)C2CC(=O)N(c3ccccc3)C2)cc1C (centres undefined) | inactive: 68% |
| CC(=O)OCC1OC(OC(C)=O)C(NC(=O)C(C)C)C(OC(C)=O)C1OC(C)=O (centres undefined) | inactive: 108% |

| Structure (SMILES) | survival |
| --- | --- |
| Cc1ccc(Cl)cc1N1CCN(C(=O)c2noc3c2CCCC3)CC1 | inactive: 73% |
| COc1ccc(Cl)cc1NC(=O)Cn1nnc2sc(-c3ccccc3)cc2c1=O | inactive: 73% |
| CN(C)c1ccc(NC(=O)Cn2cc(S(=O)(=O)Cc3ccccc3Cl)c3ccccc32)cc1 | inactive: 71% |
| CCOC(=O)c1ccc(NC(=O)CSc2ncc(S(=O)(=O)c3ccc(C)c(Cl)c3)c(=O)[nH]2)cc1 | inactive: 71% |
| Fc1ccccc1N1CCN(c2ncnc3c2nc2n3CCCC2)CC1 | inactive: 72% |
| Clc1cccc(-n2ncc3c(NC4CCCCCC4)ncnc32)c1 | inactive: 81% |
| COc1ccc(CCNC(=O)CCCCn2c(=O)c3ccccc3n(Cc3ccccc3)c2=O)cc1OC | inactive: 98% |
| CCOc1ccc(NC(=O)Cn2cc(C(=O)c3ccc(C)cc3)c(=O)c3cc4c(cc32)OCO4)cc1 | inactive: 62% |
| CCc1ccc(CN(Cc2ccco2)C(=O)c2cc(-c3ccc(C)c(F)c3)on2)cc1 | inactive: 118% |
| CCOCCc1nn2c(=O)cc(COC(=O)c3ccccc3NC(=O)c3ccc(C)cc3)nc2s1 | inactive: 88% |
| CCn1cc2nc(SCC(=O)Nc3ccc(OC)cc3OC)n(Cc3ccc(Cl)cc3)c(=O)c2n1 | inactive: 68% |
| CCCCN(C)c1nnc(NC(=O)Nc2ccc(Br)c(C)c2)s1 | inactive: 88% |
| Cc1ccc2nc3c(c(Nc4ccc(C)c(C)c4)c2c1)CCC3 | inactive: 39% |
| CCn1c2c(c(=O)n3ncc(C(=O)Nc4ccc(Cl)cc4C)c13)CN(Cc1ccc(OC)cc1)CC2 | inactive: 76% |
| Brc1cccc(-c2nnn3c2nc(N2CCCCC2)c2ccccc23)c1 | inactive: 76% |
| Cc1ccc(F)cc1S(=O)(=O)N1CCC(c2nc3ccccc3s2)CC1 | inactive: 96% |
| COC(=O)Cn1c(C(=O)OC)cc2c1ccn2-c1ccc(F)cc1 | inactive: 126% |
| CCCn1c(=O)c2sccc2n2c(CCCC(=O)NC3CCCCC3)nnc12 | inactive: 86% |
| O=C(CNS(=O)(=O)c1cccs1)N1CCN(c2ccccc2F)CC1 | inactive: 60% |
| COc1ccc(C2C=C(c3ccc(Cl)cc3)Nc3nc(NC(=O)CCC(=O)O)nn32)cc1 (centres undefined) | inactive: 83% |
| Cc1ccccc1Nc1c(-c2c[nH]c3ccccc23)nc2cccc(C)n12 | inactive: 148% |
| Cc1ccccc1Cn1c(C)c(CNCCCc2ccccc2)c(C(=O)O)c1C | inactive: 98% |
| Cc1ccc(N(Cc2cccs2)C(=O)c2ccccc2[N+](=O)[O-])cc1 | inactive: 82% |

| Structure (SMILES) | survival |
| --- | --- |
| Cc1ccc(NC(=O)CCc2nc3cccnc3n2-c2ccccc2)cc1Cl | inactive: 74% |
| COc1ccc(-c2csc3nc(-c4ccc(C)cc4)oc(=O)c23)cc1OC | inactive: 100% |
| O=c1c2sc3ccccc3c2n(Cc2ccc(Cl)cc2)c(=O)n1Cc1ccco1 | inactive: 77% |
| O=C(Nc1ccc(F)cc1Cl)c1cnc(N2CCOCC2)c2ccccc12 | inactive: 126% |
| CCCOc1cccc(C(=O)N2CCCCC2CCN2CCCCC2)c1 (centres undefined) | inactive: 85% |
| CCC(C)NC(=O)Cn1c(=O)c2cccn2c2ccc(F)cc21 (centres undefined) | inactive: 88% |
| COc1cccc(CNC(=O)c2cc(=O)[nH]c3ccc(S(=O)(=O)N4CCCC4)cc23)c1 | inactive: 92% |
| Cc1ccccc1NC(=O)CCn1nc(-c2ccc(Cl)cc2)c2ccccc2c1=O | inactive: 121% |
| CS(=O)(=O)N(CC(=O)N1CCCCC1)C1CCCCC1 | inactive: 101% |
| COc1ccc(CNC(=O)CC2Oc3ccc(C)cc3NC2=O)cc1 (centres undefined) | inactive: 78% |
| COc1cccc(CC(=O)Nc2ccc3nc(Nc4cccc(C(F)(F)F)c4)cc(C)c3c2)c1 | inactive: 19% |
| COC(=O)c1cc2oc3ccccc3c2n1CC(=O)Nc1ccc(F)c(Cl)c1 | inactive: 77% |
| Cc1ccc(S(=O)(=O)N2CCc3cc(C(=O)Nc4c(C)cccc4C(C)C)ccc32)cc1 | inactive: 86% |
| Cc1cccc(Cn2c(CN3CCCC(C)C3)nc3c2c(=O)n(C)c(=O)n3C)c1 (centres undefined) | inactive: 80% |
| COc1ccc(CCNc2nc(SCc3cccc(Cl)c3)nc3ccccc23)cc1OC | inactive: 75% |
| CCOc1ccc(CCNC(=O)c2nn(C)c3c2CSc2ccc(C)cc2-3)cc1OCC | inactive: 65% |
| COCCCNC(=O)c1ccc(-n2c(-c3ccccc3)cc3c2CCCCC3)cc1 | inactive: 83% |
| O=C(NCc1ccccc1)c1nc(-c2ccc(Cl)cc2)n2c1CCCCC2 | inactive: 125% |
| CCc1nonc1NC(=O)c1oc2ccc(Cl)cc2c1C | inactive: 93% |
| Cc1ccc(Cl)cc1NC(=O)Cn1c(SCC(=O)NCc2ccccc2)nc2ccccc21 | inactive: 80% |
